Source: the antibiotic and cytotoxicity screens of Wong et al. (2023)
Some of the results follow.

What follows are compounds tested on S. aureus RN4220 (assay: growth inhibition call (relative growth <= 0.2)). Conditions: 50 µM.

Row | SMILES | growth inhibition call
1 | COc1ccc(NC(=O)Nc2ccc3c(c2)C(=O)N([C@H](C)CO)C[C@H](C)[C@H](CN(C)C(=O)NC2CCCCC2)OCCCC[C@@H](C)O3)cc1 | inactive
2 | COc1ccc(S(=O)(=O)N(C)C[C@@H]2OCCCC[C@@H](C)Oc3ccc(NC(=O)Nc4cccc5ccccc45)cc3C(=O)N([C@@H](C)CO)C[C@H]2C)cc1 | inactive
3 | C[C@@H]1CCCCO[C@H](CN(C)Cc2ccncc2)[C@H](C)CN([C@H](C)CO)C(=O)c2cc(NC(=O)Cc3ccccc3)ccc2O1 | inactive
4 | Cc1[nH]c(=O)[nH]c(=O)c1S(=O)(=O)N1CCOCC1 | inactive
5 | COc1ccc(S(=O)(=O)N(C)C[C@H]2OCCCC[C@H](C)Oc3ccc(NC(=O)Nc4ccc(F)cc4)cc3C(=O)N([C@H](C)CO)C[C@@H]2C)cc1 | inactive
6 | O=C(O)[C@@H]1CCCN1 | inactive
7 | Cc1noc(C)c1NC(=O)Nc1ccc2c(c1)C(=O)N([C@H](C)CO)C[C@@H](C)[C@H](CN(C)S(=O)(=O)c1ccc(F)cc1)OCCCC[C@H](C)O2 | inactive
8 | CC(C)(C)S(=O)N1Cc2cc(C(=O)NCc3ccc(Oc4ccccc4)cc3)nc(-c3cccc(C#CCC4CCCC4)c3)c2[C@@H]1CCO (stereo not given in full) | inactive
9 | CNC(=O)C[C@@H]1CC[C@@H]2[C@H](COC[C@H](O)CN2C(=O)Nc2ccc3c(c2)OCO3)O1 | inactive
10 | C[C@H]1CCCCO[C@@H](CN(C)C(=O)Nc2cccc3ccccc23)[C@@H](C)CN([C@@H](C)CO)C(=O)c2cc(NS(=O)(=O)c3cn(C)cn3)ccc2O1 | inactive
11 | C[C@@H]1CN([C@@H](C)CO)C(=O)Cc2cc(NC(=O)Cc3ccccc3)ccc2O[C@H]1CN(C)S(=O)(=O)c1cn(C)cn1 | inactive
12 | Cc1noc(C)c1NC(=O)N(C)C[C@H]1OCCCC[C@H](C)Oc2ccc(NS(=O)(=O)c3ccc(Cl)cc3)cc2C(=O)N([C@@H](C)CO)C[C@H]1C | inactive
13 | O=C(CCCCCCC(=O)NO)NO | inactive
14 | Cc1ccc(NC(=O)COc2ccc(S(=O)(=O)N3CCOCC3)cc2)cc1S(=O)(=O)N1CCCCCC1 | inactive
15 | COc1ccnc(C#N)c1 | inactive
16 | S=C1NCN(Cc2cccs2)CN1 | inactive
17 | O=C1OCC=C[C@H]2O[C@@]34C=CCN(CCN5CCOCC5)C(=O)[C@H]3N(CCCCCCO)C(=O)[C@@H]4[C@@H]12 | inactive
18 | C[C@H](CO)N1C[C@H](C)[C@H](CN(C)S(=O)(=O)c2cccs2)Oc2ccc(NS(=O)(=O)c3cccs3)cc2CC1=O | inactive
19 | C[C@@H]1CCCCO[C@@H](CN(C)S(=O)(=O)c2ccccc2)[C@@H](C)CN([C@@H](C)CO)C(=O)c2cc(NC(=O)CCC(F)(F)F)ccc2O1 | inactive
20 | Cc1ccc(S(=O)(=O)Nc2ccc3c(c2)C(=O)N([C@H](C)CO)C[C@@H](C)[C@H](CN(C)Cc2ccc(Cl)c(Cl)c2)OCCCC[C@H](C)O3)cc1 | inactive

Row | SMILES | growth inhibition call
21 | O=C(Nc1ncc(SCCN2CCCC2)s1)[C@]1(c2ccc(S(=O)(=O)C3CC3)cc2)C[C@H]1C1CCCCC1 | inactive
22 | CNC[C@H]1COCCO1 | inactive
23 | Cc1ccc(S(=O)(=O)Nc2ccc3c(c2)CC(=O)N([C@H](C)CO)C[C@@H](C)[C@H](CN(C)Cc2ccc(Oc4ccccc4)cc2)O3)cc1 | inactive
24 | C[C@@H]1CN([C@H](C)CO)C(=O)c2cc(NC(=O)C3CCCCC3)ccc2O[C@@H](C)CCCCO[C@H]1CN(C)C(=O)Nc1cccc2ccccc12 | inactive
25 | C[C@@H]1CN([C@H](C)CO)S(=O)(=O)c2ccc(-c3cncnc3)cc2O[C@@H]1CN(C)C(=O)Cc1ccccc1 | inactive
26 | C[C@@H]1CCCCO[C@H](CN(C)C(=O)Nc2cccc3ccccc23)[C@@H](C)CN([C@H](C)CO)C(=O)c2cc(NC(=O)Nc3ccccc3)ccc2O1 | inactive
27 | C[C@@H]1CCCCO[C@H](CN(C)C(=O)NC2CCCCC2)[C@@H](C)CN([C@H](C)CO)C(=O)c2cc(NC(=O)CCCCCC(=O)Nc3ccccc3N)ccc2O1 | inactive
28 | COc1ccc(NC(=O)N(C)C[C@@H]2Oc3ccc(NC(=O)Nc4ccc(C(F)(F)F)cc4)cc3CC(=O)N([C@H](C)CO)C[C@H]2C)cc1 | inactive
29 | CC(=O)N[C@@H](CC(=O)O)C(=O)N[C@@H](CCC(=O)O)C(=O)O | inactive
30 | C[C@@H]1CCCCO[C@@H](CN(C)C(=O)Nc2ccc(C(F)(F)F)cc2)[C@H](C)CN([C@H](C)CO)C(=O)c2cc(NC(=O)Nc3ccccc3)ccc2O1 | inactive
31 | Cc1ccc(S(=O)(=O)N(C)C[C@@H]2Oc3ncc(C#CC(C)(C)O)cc3C(=O)N([C@H](C)CO)C[C@@H]2C)cc1 | inactive
32 | CCN1CCN(C(=O)NC(C(=O)NC2C(=O)N3C2SC(C)(C)C3C(=O)[O-])c2ccccc2)C(=O)C1=O.[Na+] (stereo not given) | active
33 | C[C@@H](O)C#Cc1ccc2c(c1)O[C@H](CN(C)C(=O)Cc1ccccn1)[C@@H](C)CN([C@@H](C)CO)S2(=O)=O | inactive
34 | C[C@H]1CN([C@@H](C)CO)S(=O)(=O)c2ccc(Br)cc2O[C@H]1CN(C)S(=O)(=O)c1ccccc1 | inactive
35 | C[C@@H]1CN([C@H](C)CO)C(=O)c2cc(NC(=O)Nc3ccccc3)ccc2O[C@H]1CN(C)Cc1ccc(Oc2ccccc2)cc1 | inactive
36 | C[C@H]1CN([C@@H](C)CO)C(=O)Cc2cc(NS(=O)(=O)c3ccccc3)ccc2O[C@@H]1CN(C)Cc1ccc(Cl)c(Cl)c1 | inactive
37 | COc1ccc(S(=O)(=O)N(C)C[C@H]2OCCCC[C@H](C)Oc3ccc(NS(=O)(=O)c4cn(C)cn4)cc3C(=O)N([C@@H](C)CO)C[C@@H]2C)cc1 | inactive
38 | CCCC[P+](CCCC)(CCCC)Cc1ccc(NC(=O)[C@@H](Cc2ccc3ccccc3c2)N=C(NC2CCCCC2)NC2CCCCC2)cc1 | active
39 | C[C@H](CO)N1C[C@H](C)[C@H](CN(C)S(C)(=O)=O)Oc2c(NS(=O)(=O)c3ccc(F)cc3)cccc2C1=O | inactive
40 | CCOC(=O)[C@H]1CCCCN1 | inactive
